Some of the results follow. Rule as the data show it: active = 3.2 or more and inactive = the rest. Most of these values are background signal.
B1: SDHA_HUMAN_215_YA (peptide)
chain: SLRADTSYFVEAFAL
B2: SH2B1_HUMAN_439 (peptide)
chain: DRLSQGAYGGLSDRP
B3: SDCBP_HUMAN_4 (peptide)
chain: GGGGMSLYPSLEDLK
B4: SIAT1_HUMAN_369_YA (peptide)
chain: SACTMGAYHPLLAEK
B5: SHAN3_HUMAN_122 (peptide)
chain: NLKKFMDYVQLHSTD
B6: SEPT2_HUMAN_211 (peptide)
chain: EEHNIKIYHLPDAES
B7: SHC1_HUMAN_350_YA (peptide)
chain: EPPDHQAYNDFPGKE
B8: SHC3_HUMAN_342_YA (peptide)
chain: DGSDHPAYNSIPSKM
B9: SHC3_HUMAN_341_YA (peptide)
chain: GDGSDHPYANSIPSK
B10: SEPT2_HUMAN_17 (peptide)
chain: INPETPGYVGFANLP
B11: SDC3_HUMAN_419 (peptide)
chain: KKKDEGSYTLEEPKQ
B12: SF01_HUMAN_87 (peptide)
chain: SPSPEPIYNSEGKRL
B13: ATR_HUMAN_310_YA (peptide)
chain: FPFEAEAYRNIEPVA
B14: SH2D3_HUMAN_278_YA (peptide)
chain: VVKAGESYTHIQALF
B15: SHC1_HUMAN_427 (peptide)
chain: ELFDDPSYVNVQNLD
B16: SFPQ_HUMAN_691_YA (peptide)
chain: GPGTPAGYGRGREEA
B17: SH3PXD2B_HUMAN_508 (peptide)
chain: DMSASAGYEEISDPD
B18: SET_HUMAN_146 (peptide)
chain: FYFDENPYFENKVLS

The binders below were run against SHP2 C-SH2 domain E139D (assay: enrichment score (SH2-bound / input frequency) (ratio); bacterial display of known human phosphotyrosine sites (pTyr-Var adds point mutants) read by sequencing; higher = stronger binding; tyrosines were phosphorylated by kinases first). Conditions: peptide library: Human pTyr.
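Also: displayed peptides selected on beads carrying the immobilized SH2 domain, with library peptides lacking any tyrosine serving as negative controls.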

Enrichment score, inactive:
B1 0.937
B2 0.948
B3 0.695
B4 1.22
B5 1.1
B6 0.839
B7 0.653
B8 0.687
B9 0.637
B10 0.731
B11 1.55
B12 0.669
B13 0.593
B14 1.06
B15 0.951
B16 1.08
B17 1.41
B18 0.981

Each binder was assayed against SHP2 C-SH2 domain wild-type in the same assay as above. Conditions: peptide library: Human pTyr.

Enrichment score, inactive:
B1 0.953
B2 0.571
B3 0.441
B4 1.05
B5 0.869
B6 0.998
B7 0.531
B8 0.522
B9 0.592
B10 0.624
B11 1.13
B12 0.651
B13 0.633
B14 1.1
B15 0.751
B16 1.08
B17 1.24
B18 1.33

What follows are binders tested against SHP2 N-SH2 domain L43F in the same assay as above. Conditions: peptide library: Human pTyr.

Enrichment score, inactive:
B1 0.91
B2 0.892
B3 0.747
B4 1.24
B5 1.08
B6 1.22
B7 0.664
B8 0.555
B9 0.668
B10 0.772
B11 1.14
B12 0.642
B13 0.454
B14 1.02
B15 0.703
B16 0.991
B17 1.04
B18 1.12

What follows are binders tested against SHP2 N-SH2 domain T42A in the same assay as above. Conditions: peptide library: Human pTyr.

Enrichment score, inactive:
B1 1.04
B2 0.514
B3 0.547
B4 1.12
B5 0.839
B6 0.872
B7 0.615
B8 0.505
B9 0.534
B10 0.584
B11 1.07
B12 0.512
B13 0.51
B14 0.949
B15 0.907
B16 0.888
B17 1.31
B18 0.812

These binders were tested against SHP2 N-SH2 domain T52S in the same assay as above. Conditions: peptide library: Human pTyr.

Enrichment score, inactive:
B1 0.99
B2 0.786
B3 0.585
B4 1.4
B5 0.875
B6 1.12
B7 0.717
B8 0.552
B9 0.634
B10 0.645
B11 0.918
B12 0.644
B13 0.77
B14 1.01
B15 0.798
B16 0.98
B17 1.34
B18 1.04

What follows are binders tested against SHP2 N-SH2 domain wild-type in the same assay as above. Conditions: peptide library: Human pTyr.

Enrichment score, inactive:
B1 1.11
B2 0.536
B3 0.665
B4 1.33
B5 0.907
B6 1.04
B7 0.581
B8 0.663
B9 0.672
B10 0.696
B11 1.44
B12 0.759
B13 0.603
B14 1.1
B15 0.939
B16 0.928
B17 1.31
B18 0.989
